Test results reported in a compilation of properties of binary mixtures (doi:10.1016/j.jct.2015.07.015).
The densities may have been worked out from excess volumes.

Test: xn = mol fraction of the nth substance listed
Details: 101 kPa

CC(=O)[O-].CC[n+]1ccn(C)c1 + O
mass density [kg/m3]
Details	298.15 K	303.15 K	313.15 K	323.15 K	333.15 K	343.15 K	353.15 K	363.15 K	373.15 K
x2 = 0.072	1098.3	1095.3	1089.2	1083.2	1077.2	1071.2	1065.4	–	–
x2 = 0.102	1098.3	1095.3	1089.2	1083.2	1077.2	1071.3	–	–	–
x2 = 0.132	1098.8	–	–	–	–	–	–	–	–
x2 = 0.188	1099.7	1096.6	–	–	–	1072.6	–	1060.8	–
x2 = 0.266	–	1097.5	1091.4	1085.5	–	1073.5	1067.7	1061.8	1056
x2 = 0.355	1101.8	1098.9	1092.8	1086.8	1080.8	–	–	1062.9	1057.1

C=CC[n+]1ccn(C)c1.[Cl-] + O
mass density [kg/m3]
Details	298.15 K	303.15 K	313.15 K	323.15 K	328.15 K	333.15 K	343.15 K	353.15 K	363.15 K	373.15 K
x2 = 0.045	1145.9	1143	–	1131	1128.2	1125.4	1119.9	1114.4	1108.8	1103.6
x2 = 0.091	1145.7	1142.7	1136.7	1131	1128.1	–	1119.8	1114.3	–	1103.5
x2 = 0.126	1145.4	1142.4	–	1130.7	1128.1	1125.2	1119.7	–	–	–
x2 = 0.152	1145.3	1142.3	1136.4	1130.6	1127.9	1125	1119.5	1113.9	1108.4	1103
x2 = 0.193	–	1141.8	1136	1130.2	1127.5	1124.7	1119.1	1113.6	1108	–
x2 = 0.267	–	1140.9	1135.1	1129.5	1126.7	1124	1118.3	–	1107.3	–
x2 = 0.335	1143	–	1134.4	–	1125.8	1123	1117.4	1111.8	1106.3	1100.9
